Reference: the supplement of paper PMC7826260
The other results are listed elsewhere or left out. The data describe in vitro nicking of single-stranded DNA by Rep domains for 1 h at 37 °C with 3 µM enzyme; only the middle of the 90-letter strands is printed. Numbers give uncut DNA relative to the enzyme-free pool, as log2; more negative means more cut, near 0 not cut, and no call is made. Because reads are shares of a total, they shift together; uncut strands gain when others are lost, and binding without cutting may add a little.

Assays:
Assay in all cases: uncleaved DNA left, log2 of reads against the no-enzyme library (log2 ratio); higher = less cleavage (more negative = more Rep cleavage of the k-mer); sequences stand for … in CTCGTCCG…ACCGGAGA
[1] = system: T1, Rep nickase domain of Muscovy duck circovirus
T1 sequence (protein, residues 1-111, tag omitted): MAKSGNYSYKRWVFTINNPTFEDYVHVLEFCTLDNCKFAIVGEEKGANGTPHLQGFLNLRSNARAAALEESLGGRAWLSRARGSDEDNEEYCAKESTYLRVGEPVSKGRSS
Description: (§1)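 A pool of 90-nt single-stranded DNAs with seven random bases just before the constant AC of the nick site (name = the seven bases) was cut by 3 µM recombinant His6-SUMO-tagged Rep nickase domain (300 nM DNA, 50 mM HEPES pH 8.0, 50 mM NaCl, 1 mM MnCl2, 1 h, 37 °C, three replicates). Uncut DNA was amplified and sequenced.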

[2] = system: T2, Rep nickase domain of banana bunchy top virus
T2 sequence (protein, residues 1-94, tag omitted): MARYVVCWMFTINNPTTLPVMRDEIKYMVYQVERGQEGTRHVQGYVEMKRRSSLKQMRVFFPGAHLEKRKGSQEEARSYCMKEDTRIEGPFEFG
Description: as §1

[3] = system: T3, Rep nickase domain of cabbage leaf curl virus
T3 sequence (protein, residues 1-116, tag omitted): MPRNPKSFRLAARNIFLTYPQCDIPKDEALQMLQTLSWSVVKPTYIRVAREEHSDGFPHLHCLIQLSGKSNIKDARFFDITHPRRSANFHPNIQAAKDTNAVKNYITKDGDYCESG
Description: as §1

[4] = system: T4, Rep nickase domain of chickpea chlorotic dwarf virus
T4 sequence (protein, residues 1-124, tag omitted): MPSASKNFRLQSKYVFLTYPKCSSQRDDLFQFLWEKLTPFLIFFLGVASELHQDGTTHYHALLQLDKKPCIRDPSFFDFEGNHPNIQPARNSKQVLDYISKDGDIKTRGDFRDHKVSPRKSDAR
Description: as §1

[5] = system: T5, Rep nickase domain of faba bean necrotic yellows virus
T5 sequence (protein, residues 1-98, tag omitted): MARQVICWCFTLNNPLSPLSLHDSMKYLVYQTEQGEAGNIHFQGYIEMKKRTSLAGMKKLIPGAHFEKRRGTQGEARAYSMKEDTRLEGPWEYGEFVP
Description: as §1

[6] = system: T6, Rep nickase domain of maize striate mosaic virus
T6 sequence (protein, residues 1-117, tag omitted): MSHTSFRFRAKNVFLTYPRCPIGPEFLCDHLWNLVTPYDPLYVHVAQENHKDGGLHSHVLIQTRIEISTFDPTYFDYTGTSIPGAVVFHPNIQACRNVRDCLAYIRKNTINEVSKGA
Description: as §1

[7] = system: T7, Rep nickase domain of porcine circovirus 2
T7 sequence (protein, residues 2-116, tag omitted): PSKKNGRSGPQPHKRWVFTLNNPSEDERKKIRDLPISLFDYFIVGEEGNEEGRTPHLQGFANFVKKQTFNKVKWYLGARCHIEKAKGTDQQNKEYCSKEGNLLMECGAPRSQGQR
Description: as §1

[8] = system: T8, Rep nickase domain of tomato golden mosaic virus
T8 sequence (protein, residues 1-124, tag omitted): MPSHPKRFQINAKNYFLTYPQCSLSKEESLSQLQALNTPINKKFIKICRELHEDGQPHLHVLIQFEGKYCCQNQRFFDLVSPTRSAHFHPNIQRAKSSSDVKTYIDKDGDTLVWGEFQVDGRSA
Description: as §1

[9] = system: T9, Rep nickase domain of tomato yellow leaf curl virus
T9 sequence (protein, residues 1-136, tag omitted): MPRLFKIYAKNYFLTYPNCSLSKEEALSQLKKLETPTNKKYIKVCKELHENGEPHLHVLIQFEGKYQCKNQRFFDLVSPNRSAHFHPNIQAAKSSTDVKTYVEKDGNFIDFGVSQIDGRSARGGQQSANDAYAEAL
Description: as §1

[10] = system: T10, Rep nickase domain of wheat dwarf virus
T10 sequence (protein, residues 1-137, tag omitted): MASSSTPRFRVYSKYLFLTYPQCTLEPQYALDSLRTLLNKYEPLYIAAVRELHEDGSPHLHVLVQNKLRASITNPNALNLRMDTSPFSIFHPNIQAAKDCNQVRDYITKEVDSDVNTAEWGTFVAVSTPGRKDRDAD
Description: as §1

Sequence | uncleaved DNA left (log2) [1] | uncleaved DNA left (log2) [2] | uncleaved DNA left (log2) [3] | uncleaved DNA left (log2) [4] | uncleaved DNA left (log2) [5] | uncleaved DNA left (log2) [6] | uncleaved DNA left (log2) [7] | uncleaved DNA left (log2) [8] | uncleaved DNA left (log2) [9] | uncleaved DNA left (log2) [10]
GCTCTCA | -0.111 | 0.0764 | 0.179 | -0.0468 | 0.0572 | 0.253 | -0.0117 | 0.000776 | 0.0609 | 0.0665
ATCCGTC | -0.0388 | -0.0633 | -0.137 | -0.165 | -0.144 | -0.711 | 0.0056 | -0.0215 | 0.0325 | -0.204
TCGATTA | -0.0764 | -0.119 | -0.155 | -0.968 | 0.00604 | -0.355 | -0.235 | -0.14 | -0.159 | -0.033
TTACAGT | -0.0281 | -0.0698 | -0.378 | -2.19 | -0.014 | -0.843 | -0.114 | -0.167 | 0.022 | -0.08
ATCACAC | 0.0868 | 0.0729 | -0.0944 | -0.344 | 0.0116 | -0.836 | 0.0951 | -0.0478 | 0.0343 | 0.0226
TCTCTGC | 0.0595 | -0.0152 | -0.335 | -0.776 | 0.0689 | -1.03 | 0.0681 | -0.0202 | -0.0795 | -0.1
GATCTGC | 0.0351 | -0.0763 | -0.062 | 0.106 | 0.0366 | -0.425 | 0.153 | -0.0819 | -0.0118 | 0.00188
AGCAATG | 0.0636 | 0.162 | 0.0845 | 0.665 | -0.0121 | 1.71 | 0.191 | 0.158 | 0.0537 | 0.18
GAGGAGA | -0.047 | 0.18 | 0.721 | 1.53 | 0.097 | 1.77 | 0.271 | 0.195 | 0.148 | 0.128
GCATGGG | 0.0476 | -0.0788 | -0.657 | -0.558 | 0.0038 | -0.912 | 0.13 | -0.0173 | 0.0508 | -0.187
CAGGAGC | -0.109 | -0.102 | 0.168 | 0.843 | -0.00936 | 0.174 | 0.185 | -0.00746 | -0.044 | -0.128
ACGTTAA | -0.00682 | -0.11 | -0.0979 | -0.153 | 0.0404 | -0.512 | -0.00945 | 0.0194 | -0.17 | -0.147
GGCTTGC | -0.0297 | 0.0054 | 0.0569 | 0.548 | -0.0213 | 0.684 | 0.148 | 0.0664 | 0.037 | 0.0597
CGATGCA | 0.0532 | 0.152 | 0.00025 | 0.381 | 0.153 | 0.439 | -0.0185 | -0.00348 | 0.159 | 0.112
ATAGATT | 0.00296 | -0.0357 | -0.0459 | -1.89 | -0.0287 | 0.172 | -0.146 | -0.0993 | -0.0023 | -0.00745
CACTACT | -3.5 | -3.61 | -2.87 | -3.65 | -1.67 | -1.49 | -4.3 | -0.933 | -0.128 | -0.431

Sequence | uncleaved DNA left (log2) [1] | uncleaved DNA left (log2) [2] | uncleaved DNA left (log2) [3] | uncleaved DNA left (log2) [4] | uncleaved DNA left (log2) [5] | uncleaved DNA left (log2) [6] | uncleaved DNA left (log2) [7] | uncleaved DNA left (log2) [8] | uncleaved DNA left (log2) [9] | uncleaved DNA left (log2) [10]
CGAAACT | 0.0716 | 0.00614 | -0.154 | -2.24 | -0.00838 | -0.222 | -0.168 | 0.0233 | 0.106 | 0.19
CCATCCT | -1.28 | -0.166 | -0.301 | -2.64 | -0.115 | -0.984 | -0.961 | -0.0962 | -0.107 | -0.134
TAAGCAA | -0.0575 | -0.0143 | -0.173 | -1.2 | -0.0342 | -0.607 | -0.0186 | 0.0483 | 0.0298 | -0.000133
TGAAGAT | 0.0388 | -0.0635 | 0.243 | 0.875 | 0.0508 | 1.41 | 0.0845 | 0.0447 | -0.0746 | 0.0749
TGCAGGC | 0.000859 | -0.0202 | 0.196 | 0.274 | -0.0123 | -0.239 | 0.0834 | 0.0304 | 0.0668 | -0.0779
GCTTCTG | 0.208 | 0.109 | 0.023 | 0.434 | 0.0173 | 0.306 | 0.156 | 0.0835 | 0.155 | 0.214
AGCACAA | -0.103 | 0.102 | 0.186 | 0.564 | 0.000606 | 0.894 | -0.00659 | -0.000982 | 0.0989 | 0.0931
GCGGTAT | 0.04 | 0.0601 | 0.73 | 1.42 | -0.101 | 1.89 | 0.252 | 0.119 | 0.0992 | 0.21
TGTCGTT | -0.102 | -0.0487 | -0.0338 | -0.995 | -0.0833 | -0.466 | -0.907 | -0.2 | 0.0179 | -0.0828
TCCATCG | 0.0373 | -0.0243 | -0.816 | -0.189 | -0.0104 | -1.12 | 0.182 | -0.0191 | -0.00399 | -0.101
TCCTTCG | 0.0503 | -0.0543 | -0.731 | -0.181 | 0.0153 | -1.07 | 0.047 | -0.0723 | -0.122 | -0.0923
TGATGTT | -3.33 | -0.535 | -2.06 | -2.91 | -0.165 | -1.52 | -3.42 | -0.789 | -0.0369 | -2.6
TACTAAA | -0.163 | -0.0393 | -0.138 | -1.34 | 0.0493 | -0.574 | -2.28 | 0.0444 | 0.0153 | -0.00456
GCCTGTT | -2.54 | -0.14 | -0.296 | -0.997 | -0.151 | 0.392 | -2.77 | -0.0169 | -0.103 | -0.337
TTGAGCA | -0.0422 | -0.0766 | -0.285 | -0.7 | -0.0894 | -1.02 | -2 | -0.0723 | 0.0111 | -0.188
